± gives the uncertainty stated by the source. Some of the results follow. A small y stands for phosphotyrosine.
Target: GRB2 (endogenous complexes from cell lysate), P62993
Experiment: GRB2 complex binding differential signal (pY peptide minus Ala control peptide) (fluorescence intensity units); higher = stronger GRB2 complex binding
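Further: phosphopeptide probes on the chip at 1–4 µM, lysate proteins bound in 20 mM Tris pH 7.0 buffer with 140 mM NaCl, 1% Triton X-100 and 5% glycerol.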

Row | Binder | GRB2 complex binding differential signal (MCF7) | GRB2 complex binding differential signal (MCF10A) | GRB2 complex binding differential signal (MDA-MB-231) | GRB2 complex binding differential signal (T47D)
1 | yRPYFR [TGFB2_Y123/A1] | 189 ± 310 | -32.8 ± 210 | 231 ± 280 | 55.9 ± 1200
2 | yTAQEG [BLK_389/A1] | 767 ± 210 | 1090 ± 1000 | 831 ± 380 | 465 ± 1200
3 | ySAFCA [TIAM1_Y1142/A1] | 413 ± 400 | 395 ± 370 | 1150 ± 800 | 3650 ± 1100
4 | yEDWDP [TIAM1_Y1323/A1] | -1.57 ± 350 | 186 ± 220 | 755 ± 350 | 596 ± 1200
5 | yENFRR [TIAM1_Y384/A1] | 25400 ± 3900 | 5040 ± 1600 | 10800 ± 2400 | 27800 ± 6000
6 | yVKKTM [TIE1_1007/A1] | 795 ± 280 | 161 ± 220 | 692 ± 310 | 1160 ± 1200
7 | yEKLPQ [TIE2_1048/A1] | 1680 ± 660 | 3070 ± 650 | 665 ± 810 | 1890 ± 1700
8 | yVNTTL [TIE2_1102/A1] | 45800 ± 5000 | 30100 ± 6200 | 30300 ± 2500 | 49200 ± 10000
9 | yEKFTY [TIE2_1108/A1] | 489 ± 380 | 235 ± 730 | 872 ± 310 | 2320 ± 1500
10 | yAGIDC [TIE2_1113/A1] | 25.2 ± 230 | -5.6 ± 310 | 202 ± 690 | 892 ± 1400
11 | yLYLAI [TIE2_897/A1] | -236 ± 1300 | 27.6 ± 160 | 347 ± 420 | 502 ± 1200
12 | yVMGGP [TNK1_277/A1] | 1590 ± 350 | 357 ± 610 | 970 ± 420 | 1770 ± 1200
13 | yVVPVE [BLNK_178/A1] | 2920 ± 1200 | 4150 ± 840 | 1390 ± 380 | 1220 ± 1300
14 | yVLARP [TNK1_661/A1] | 2680 ± 1100 | 1210 ± 380 | 1420 ± 430 | 2260 ± 2000
15 | yEEVAR [TPM1_162/A1] | 2130 ± 400 | 1470 ± 420 | 967 ± 520 | 2030 ± 1200
16 | yRSNWQ [TR150_107/A1] | 474 ± 240 | 180 ± 170 | 107 ± 320 | 639 ± 1200
17 | ySPRRG [TR150_118/A1] | 931 ± 220 | 233 ± 280 | 499 ± 300 | 529 ± 1200

Row | Binder | GRB2 complex binding differential signal (MCF7) | GRB2 complex binding differential signal (MCF10A) | GRB2 complex binding differential signal (MDA-MB-231) | GRB2 complex binding differential signal (T47D)
18 | yGTGSA [TR150_228/A1] | 981 ± 400 | 824 ± 230 | 506 ± 290 | 522 ± 1300
19 | yAPPGK [TR150_476/A1] | 7040 ± 1800 | 3360 ± 650 | 995 ± 370 | 1280 ± 960
20 | ySPAHN [TR150_54/A1] | -464 ± 1300 | 235 ± 530 | 1010 ± 470 | -335 ± 1400
21 | yQNRDF [TR150_68/A1] | 25600 ± 8500 | 18200 ± 2600 | 5300 ± 960 | 18900 ± 3000
22 | yVSSFG [TXK_420/A1] | 997 ± 390 | 429 ± 350 | 938 ± 370 | 1600 ± 1100
23 | yDFLPR [TXK_91/A1] | 1730 ± 660 | 405 ± 320 | 447 ± 350 | 895 ± 920
24 | yIHPTE [BLNK_189/A1] | 5990 ± 1300 | 3760 ± 870 | 1970 ± 420 | 1170 ± 1800
25 | yTEVDP [TXNIP_Y378/A1] | 1200 ± 240 | 858 ± 320 | 654 ± 320 | -95.8 ± 3400
26 | yYRQGC [TYRO3_685/A1] | 253 ± 280 | 169 ± 400 | 100 ± 250 | 48.2 ± 1500
27 | yRQGCA [TYRO3_686/A1] | 1230 ± 380 | 745 ± 490 | 356 ± 310 | 1040 ± 2900
28 | ySGLSD [VAV1_142/A1] | 502 ± 300 | 169 ± 260 | 1530 ± 480 | 2970 ± 1700
29 | yDCVEN [VAV1_160/A1] | 118 ± 180 | 104 ± 220 | 167 ± 310 | 124 ± 880
30 | yEDLMR [VAV1_174/A1] | 1090 ± 420 | -362 ± 960 | 652 ± 270 | 998 ± 1600
31 | yDLKDF [VAV1_441/A1] | 346 ± 260 | 127 ± 210 | 422 ± 340 | 252 ± 1400
32 | yGRVGW [VAV1_826/A1] | -88 ± 250 | -2.72 ± 600 | 172 ± 410 | -30.3 ± 990
33 | yYSEYC [VAV1_844/A1] | -30.3 ± 270 | 72.2 ± 170 | 253 ± 250 | 192 ± 1600
